Measured values as given in publication PMC4336329 (PLoS ONE, 2015).
Screen size: about 310,000 compounds; about 14,000 (4.5%) showed an effect of 50% or more. Effects have a minus sign here. Some of the results follow.

molecular target: human ether-à-go-go-related gene (hERG) potassium channel (human, UniProt Q12809); test: primary screen, population patch clamp on CHO cells stably expressing hERG
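Note: peak tail current of the secondary pulse compared with the same well before compound.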

Sequence of human ether-à-go-go-related gene (hERG) potassium channel (Q12809 whole entry, looked up): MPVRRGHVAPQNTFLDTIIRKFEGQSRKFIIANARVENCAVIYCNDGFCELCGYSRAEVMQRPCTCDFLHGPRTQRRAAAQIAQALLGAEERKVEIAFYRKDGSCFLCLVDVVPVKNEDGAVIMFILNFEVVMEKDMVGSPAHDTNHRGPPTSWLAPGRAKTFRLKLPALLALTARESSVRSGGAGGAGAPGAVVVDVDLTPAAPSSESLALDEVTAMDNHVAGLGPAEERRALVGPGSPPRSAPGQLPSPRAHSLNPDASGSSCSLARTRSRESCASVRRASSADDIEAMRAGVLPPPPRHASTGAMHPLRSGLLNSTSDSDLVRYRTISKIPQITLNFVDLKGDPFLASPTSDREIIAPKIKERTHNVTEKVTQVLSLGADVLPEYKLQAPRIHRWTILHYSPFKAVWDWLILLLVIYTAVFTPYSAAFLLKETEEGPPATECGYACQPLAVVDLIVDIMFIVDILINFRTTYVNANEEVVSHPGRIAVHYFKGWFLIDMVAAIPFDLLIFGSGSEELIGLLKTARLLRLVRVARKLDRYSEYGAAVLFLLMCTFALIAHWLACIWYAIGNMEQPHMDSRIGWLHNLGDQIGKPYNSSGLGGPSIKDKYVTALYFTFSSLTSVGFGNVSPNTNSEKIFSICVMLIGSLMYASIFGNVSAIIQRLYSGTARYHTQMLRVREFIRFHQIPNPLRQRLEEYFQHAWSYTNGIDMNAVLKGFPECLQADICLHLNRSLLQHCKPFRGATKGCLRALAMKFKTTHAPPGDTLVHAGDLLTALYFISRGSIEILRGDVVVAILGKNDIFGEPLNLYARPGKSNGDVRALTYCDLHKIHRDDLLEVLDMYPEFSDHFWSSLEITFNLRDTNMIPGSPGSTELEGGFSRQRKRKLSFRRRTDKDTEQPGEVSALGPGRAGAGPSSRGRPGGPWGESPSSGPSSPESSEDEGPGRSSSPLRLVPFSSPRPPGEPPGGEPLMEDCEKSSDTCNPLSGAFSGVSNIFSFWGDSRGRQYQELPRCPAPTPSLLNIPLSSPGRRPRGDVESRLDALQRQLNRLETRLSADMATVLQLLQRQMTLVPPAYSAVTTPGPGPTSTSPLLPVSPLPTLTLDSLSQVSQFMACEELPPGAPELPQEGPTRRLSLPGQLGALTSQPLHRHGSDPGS

Point of comparison: `CCCOc1ccc(N2C(=O)CC(N(Cc3ccc(S(N)(=O)=O)cc3)C(=O)CC)C2=O)cc1` (stereo not shown), “hERG current change (%, negative = inhibition) at 10uM” value -2.71%. Against it:
- CCOc1ccc(C(C)NC(=S)NCc2ccc(F)cc2)cc1 (stereo not shown) — higher, 9.81%
- CS(=O)(=O)N(CC(=O)Nc1ccccc1)c1cccc(Cl)c1Cl — higher, 3.26%
- CC1CC(C)CN(S(=O)(=O)c2ccc(F)c(C(=O)Nc3ccc(Cl)cc3F)c2)C1 (stereo not shown) — higher, 12.3%
- Cc1ccc(NC(=O)Cc2noc3ccccc23)cc1 — higher, 24.6%
- CCn1c(-c2cc(-c3ccccc3OC)nc3ccccc23)n[nH]c1=S — lower, -8.18%
- CCOC(=O)c1ccc(NC(=O)CN2C(=O)NC3(CCCCCCC3)C2=O)cc1 — lower, -7.35%
- CCC(C)N1C(=O)S/C(=C/c2ccc(N3CCOCC3)cc2C)C1=O (stereo not shown) — higher, 2.7%
- CCOC(=O)c1sc2nc(C)nc(N3CCN(c4ncccn4)CC3)c2c1C — higher, 1.82%
- O=C(Nc1cccc(NC(=O)c2ccccc2Cl)c1)c1ccc(F)cc1 — lower, -13.8%
- O=C(CCN1C(=O)c2cccc3cccc(c23)C1=O)Nc1ccccc1 — higher, 23.9%
- COc1cccc(-c2nc(CS(=O)(=O)CC(=O)NC3CCCc4ccccc43)c(C)o2)c1 (stereo not shown) — higher, -1.74%
- C/C(=N\OCC(=O)N/N=C/c1ccc(C)cc1O)c1cccs1 — higher, 8.57%
- Cc1cc([N+](=O)[O-])nn1CC(=O)NCc1ccco1 — higher, 1.03%
- O=C(Nc1nc2ccc(F)cc2s1)c1ccccn1 — higher, -2.4%
- COc1ccc(C(=O)NCCS(=O)(=O)NCc2ccc3c(c2)OCO3)cc1 — lower, -17.6%
- CCS(=O)(=O)N1CCC(C(=O)Nc2cc(C)ccc2O)CC1 — higher, 18.6%
- COc1ccc(/C=C/C(=O)NC(=S)Nc2ccc(S(N)(=O)=O)cc2)cc1OC — higher, 19.7%
- COc1ccc([C@H]2CC(=O)C=C(c3ccc(C)c4ccccc34)C2)cc1 — higher, 16.5%
- CC(=O)N(CC(=O)O)c1ccccc1 — higher, 10.5%
- CC(=O)Nc1ccc(S(=O)(=O)NCC2CCC(C(=O)NCCCOC(C)C)CC2)cc1 (stereo not shown) — higher, -0.857%
- CCCS(=O)(=O)N1CCC(C(=O)NCCCOCC)CC1 — higher, -1.18%
- Fc1ccc(-n2cc(CNCCc3ccccn3)c(-c3ccccc3Cl)n2)cc1 — lower, -89.9%
- Cc1c(Cl)cccc1NC(=O)CN1CCN(CCO)CC1 — higher, 10.5%
- COc1ccc(C(=O)Nc2ccc3ccccc3c2)cc1OC — higher, 5.94%
- CCN(Cc1ccc(C#CCCO)cc1)CC1CCCN(CCc2cccc(F)c2)C1 (stereo not shown) — lower, -65.2%
- Cn1c(=O)oc2cc(S(=O)(=O)N3CCN(C(=O)c4ccco4)CC3)ccc21 — lower, -6.91%
- C=CCC(NCc1ccccc1)c1ccccc1 (stereo not shown) — higher, 1.95%
- Cc1cc(=O)n2[nH]cnc2n1 — higher, 2.28%
- CS(=O)(=O)c1ccc(NC(=O)CCCc2nc3ccccc3c(=O)[nH]2)cc1 — higher, 37.7%
- Cc1nc(N2CCOCC2)nc(OCCN2CCOCC2)c1[N+](=O)[O-] — higher, -0.852%
- O=C(c1ccccc1Br)N1CCCC(c2nc(-c3cccs3)no2)C1 (stereo not shown) — lower, -3.22%
- COC(=O)Nc1ccc(S(=O)(=O)NCCCCCC(=O)O)cc1 — higher, -1.56%
- O=C(NCc1ccco1)[C@@H]1CCCN1C(=O)c1cccs1 — lower, -16.3%
- CC(C)C(=O)Nc1ccccc1N1CCN(C(=O)c2ccccc2)CC1 — lower, -14.2%
- O=C(C1CCCO1)N1CCN(c2ccccn2)CC1 (stereo not shown) — higher, 12.1%
- CN(C)Cc1c(O)ccc2occ(C(=O)c3ccccc3)c12 — lower, -52.8%
- CC1(C)Cc2cccc(OCC(=O)N3CCN(c4ccccc4Cl)CC3)c2O1 — lower, -64.3%
- O=C(CCCN1C(=O)c2ccccc2C1=O)N1CCCCC1 — higher, 8.56%
- CCC(=O)N1CCc2cc(S(=O)(=O)CCC(=O)Nc3ccc(CC)cc3)ccc21 — higher, 14.9%
- CCCc1nn2c(=O)cc(CSCC(=O)Nc3nnc(C(C)C)s3)nc2s1 — higher, 8.15%
- CCOC(=O)C1CCN(C2=NC(=O)/C(=C/c3ccc(Cl)cc3)S2)CC1 — lower, -64.8%
- COc1ccc(/C=N/NC(=O)CSc2n[nH]c(=O)[nH]c2=O)cc1 — higher, 11.5%
- CS(=O)(=O)N(CC(=O)Nc1ccc(Br)cc1)C1CCCCC1 — lower, -10.1%
- COc1ccccc1C(=O)C1CCCN(C(=O)c2ccco2)C1 (stereo not shown) — higher, 15.8%
- CSCCC(NC(=O)c1ccc([N+](=O)[O-])cc1Cl)C(=O)OCC(=O)NC(=O)CN1CCCC1=O (stereo not shown) — higher, 1.94%
- COc1cc(N)c(Cl)cc1C(=O)OC(C)C(=O)Nc1cccc(S(=O)(=O)N2CCOCC2)c1 (stereo not shown) — higher, -0.241%
- CNC(=O)c1cc(S(=O)(=O)N(C)C)ccc1Cl — higher, 5.59%
- COc1cccc(N2CC(NC(=O)c3ccc4ccccc4c3)CC2=O)c1 (stereo not shown) — higher, 4.39%
- CCN(CC(=O)NCc1cccs1)C(=O)C1CC(=O)N(c2ccc(OC)cc2OC)C1 (stereo not shown) — higher, -2.35%
- Clc1ccc(Cl)c(-c2nc(-c3ccncc3)no2)c1 — higher, 26.5%
- COCCCn1c(SCc2nnc(-c3ccccc3)o2)nc2sc3c(c2c1=O)CCC3 — lower, -31%
- Cc1nn(C2CCCCC2)c(N)c1-c1ccccc1 — lower, -3.53%
- Cc1ccc2nc(SCCC(=O)O)cc(C)c2c1 — higher, 4.9%
- O=C(O)CCN1C(=O)/C(=C\c2cccc(OCc3ccccc3)c2)SC1=S — higher, 10.6%
- Cc1cc(Cl)cc(C)c1OCCn1ccnc1.Cl — lower, -13.4%
- O=C1CCCN1CCCNC(=S)Nc1ccccc1 — lower, -5.9%
- O=C1NC(=O)C(c2cn(-c3ccccc3)nc2-c2ccc(F)cc2)N1 (stereo not shown) — higher, 1.82%
- S=C1SCN(Cc2cccnc2)CN1Cc1ccccc1 — lower, -54.7%
- CCC(C(=O)OCC(=O)NC(=O)c1ccccc1)c1ccccc1 (stereo not shown) — higher, 11.7%
- Cc1oc2c(c1C(=O)NC(Cc1c[nH]c3ccccc13)C(=O)O)CCCC2 (stereo not shown) — higher, 6.5%
- O=C(CN1C(=O)c2cccc3cccc1c23)N1CCc2ccccc2C1 — lower, -3.96%
- COC(=O)c1cc(S(=O)(=O)Nc2ccsc2C(=O)OC)oc1C — higher, 4.86%
- CCOc1ccccc1NC(=O)C1CCN(S(=O)(=O)c2cccc3cccnc23)CC1 — lower, -15.3%
- CCCCc1c(O)nc(SCC(=O)c2ccccc2)n(-c2ccccc2C)c1=O — higher, 19.8%
- CC(=O)Nc1ccc(N=Nc2ccccc2)cc1 — higher, 8.44%
- CCCn1nnnc1-c1ccc(Cl)cc1 — higher, 14.4%
- Cc1cccc(C)c1NC(=O)CCCSc1nnc(-c2ccc(F)cc2)n1-c1ccccc1 — lower, -45.3%
- Cc1ccc(N(C)S(=O)(=O)c2ccc3c(c2)CC(C)N3C(=O)C2CC2)cc1 (stereo not shown) — higher, 13.8%
- CCC(c1nnnn1Cc1ccco1)N(CCc1ccccc1)Cc1cc2ccc(OC)cc2[nH]c1=O (stereo not shown) — lower, -24.8%
- COc1ccc2cc(C(C)c3nc4ccccc4c(=O)n3N)ccc2c1 (stereo not shown) — lower, -4.49%
- COc1ccc(C(O)P(=O)(OCC(C)C)c2ccc(N(C)C)cc2)c(OC)c1 (stereo not shown) — lower, -3.56%
- CCc1ccc2[nH]c(=O)c(C(c3nnnn3CCOC)N3CCN(c4ccccc4)CC3)cc2c1 (stereo not shown) — lower, -11.6%
- O=C(CCNS(=O)(=O)c1ccccc1Cl)N1CCN(c2ccccn2)CC1 — lower, -27.9%
- CC(Oc1ccc2ccccc2c1)C(=O)N/N=C/c1cccnc1 (stereo not shown) — higher, -0.134%
- Fc1ccccc1-c1nc2ncccc2o1 — higher, -1.44%
- COc1ccc(NC(=O)c2cc(C)nn2-c2ccccc2)cc1 — higher, 11%
- O=C(COC(=O)/C=C/c1ccco1)NCc1ccccc1 — higher, 28.1%
- COc1cc(OC)cc(C(=O)Nc2c(F)cccc2F)c1 — higher, 4.42%
- Cn1nnnc1SCC(=O)Nc1ccccc1[N+](=O)[O-] — higher, -1.11%
- COc1ccc(NC(=O)CN(C)C(=O)c2cc(CN3C(=O)c4ccccc4C3=O)ccc2OC)cc1 — lower, -5%
- CCCCC(=O)Nc1ccc(Br)cn1 — higher, 14%
- Cc1[nH]c2ccccc2c1C(C[N+](=O)[O-])c1ccco1 (stereo not shown) — higher, -2%
- O=C(NCCCO)C(=O)Nc1cc2c3c(c1)CCC(=O)N3CCC2 — higher, 22.6%
- C=CCN1CCN(C(=O)c2cc3c(s2)CCC(CC)C3)CC1 (stereo not shown) — lower, -57.3%
- CCc1ccccc1N(CC(=O)NC(C)c1ccccc1)S(C)(=O)=O (stereo not shown) — higher, 20.5%
- O=C(C1=C(O)C(=O)N(CCN2CCOCC2)C1c1ccccc1)c1cccs1 (stereo not shown) — higher, -2.27%
- CN1C2=NCCN2C(=O)c2ccccc21 — higher, -2.32%
- O=C(NCCc1ccccn1)c1cccc(S(=O)(=O)N2CCCCCC2)c1 — lower, -27%
- CN(C)c1cccc(NC(=O)CCc2ccccc2)c1 — higher, 0.44%
- CCc1ccc(-c2ccc(SCc3ccccn3)nn2)cc1 — higher, 3.91%
